This passage reports Ki results from patent US7425576B2, “Compounds as inhibitors of hepatitis C virus NS3 serine protease” (Schering Corporation, priority 2004, dated 2008).

Structures are written as SMILES.

The assay has as its target Recombinant heterodimeric HCV NS3/NS4A protease (strain 1a) (Hepatitis C virus genotype 1a, UniProt P27958). Put plainly: Spectrophotometric assay for HCV protease inhibitory activity (chromogenic ester substrates). It is filed as biochemical. Conditions: Table 3, Ki* range class.

For the molecule `COC[C@@](C)(CC(C)C)NC(=O)N[C@H](C(=O)N1C[C@H]2[C@@H]([C@H]1C(=O)NC(CC1CC1)C(=O)C(N)=O)C2(C)C)C1(C)CCCCC1` (some centres unmarked) [Example 1687], the Ki was less than 75 nM.
As to `COC[C@@](C)(CC(C)C)NC(=O)N[C@H](C(=O)N1C[C@H]2[C@@H]([C@H]1C(=O)NC(CC1CCC1)C(=O)C(N)=O)C2(C)C)C1(C)CCCCC1` (some centres unmarked) [Example 1688], the Ki was less than 75 nM.
